In the RNAGym collection of RNA variant scans (doi:10.7554/elife.90254) one finds self-cleavage data, which are given here for 167 variants.

Read counts are not given, so values of variants with three or more changes are uncertain.

B1: LINE1-full (parent)
chain: UACGUAGGUGGUUUUCCCCUGAUAGUGCUAAGGGGGCCUGGAAGUUUGGACUGGGCAGAGCUCAACACAGCGUGGCAAAGUGGCUGUGGCUAGACUGCCUCUCUGGAUUCCUCGUCACUCAGCAGGGCAUCUCUGAGAGAAAUGCC

This series covers variants of B1. Description: self-cleavage, relative activity (ratio to wild type); higher = more cleavage; in vitro, sequencing; the parent is a self-cleaving ribozyme.
For the variant U96A C103A U104A A117G, the self-cleavage was 0. The value for G105U U108C U115C was 2.04. The value for U102G U108C A138G was 0; that for U85C U112C U130C was 0.4. Then U85A U112C U132C, with 0.15; and A92G G106U A129U, with 0.09. As for A92G C101U A140G, the self-cleavage turned out to be 0.05.

For the variant U91C U104A C146U, the self-cleavage came out at 0.33. Then U85C U91C U102C A141U, with 0; and U96C U132C A138G, with 0. The value for U102C C103U A117G was 1.65; that for U87A U130C U134A A136U was 0.03; that for C99U U100G A129U was 0.27.

Regarding U87C U115A U143C, the self-cleavage turned out to be 0.28. On to U104G U119C A141G, for which the self-cleavage worked out at 1.93.

With U85C A121U A129G, the self-cleavage turned out to be 0.17. Then U104C A107U U134C A141G, with 2.3; and U81C C84U U96A, with 0.04. The value for U85A A92U U104C was 0.12; that for U102A U132A U143A was 1.05. Then U81A U100A A141G, with 2.23. As for U96C C101U A129U, the self-cleavage turned out to be 0.14.

U102C U112C A140U: the self-cleavage was 2.33. The value for A79U U102C A136G A140G was 0.79. The value for U87A U104C A129G was 0; that for C84U G89A A124G was 0.04. On to U91C A92U A94C A117U, for which the self-cleavage came to 0.06.

With U87C U102C A136G, the self-cleavage was found to be 0. The value for U81A A121C A141G was 2.92; that for U104C A107G G139U was 1.1. As to U87A A117U U132C, the self-cleavage amounted to 0.1.

On to U87A U96C U132C, for which the self-cleavage was 0.12.

In the case of A94G U96A A141G, the self-cleavage is 0.1. Then G83A U85C U102G, with 0.04. The value for A94U U119C G125U G135A was 0.33; that for A94G U134C A142G was 0.28; that for G80A U108A A141G U143C was 1.69. The value for C103A U115C U143C was 1.66; that for U100C U109C U112C U134C was 1.02.

Regarding U81C U87C A121U, the self-cleavage is 1.03. Then U100C U119C C120U, with 1.03. In the case of U81C U104A U119A, the self-cleavage came out at 1.15. Then A94G U130C A138G, with 0.31; and G80A U85A G126U, with 0.14; and G82A U87C U91G U109A, with 0.08.

Turning to U100C U108C A138G A141G, the self-cleavage stood at 1.67. Then U96C A117G A141G, with 0; and A92G G105U U112A U134C A138G, with 0.04. The value for U81C G122A G139A was 0.76. The value for U81A U85C G127A was 0.18; that for G105A U115A A138G was 1.36. As to C84G U85A U91A A121U, the self-cleavage was found to be 0.01. The value for U91C U100C U104A was 0.72. The value for C99U U115C A138G was 1.12; that for U85C A92U U96C was 0; that for U85C A121G A136U was 0.22. The value for U81A A124U A140G was 1.66; that for U81G A94C A141G was 0.15.

For U96C U115C C145U, the self-cleavage amounted to 0.71. Then U85C U100A A138G, with 0.06; and U91C U130C U132C, with 0.61; and U96A U115A A117G, with 0.

Take U81A U104C A140G: the self-cleavage came out at 2.82. The value for U81A U85A U104A was 0; that for G82A A92G U102C G125A was 0.03. Then U104A A129G U130C, with 1.61. U85C U112C A140C: the self-cleavage worked out at 0.08. Then C90G U104A U143C, with 0.07; and G105A U112A U119C, with 1.12.

As for U81C G88A C146U, the self-cleavage amounted to 0.08.

As to U100C U132C A136G, the self-cleavage was determined as 1.25. Then U85A U115A A140G, with 0.04; and U100C A138G A142G, with 2.38.

Regarding G82U U119C A129C, the self-cleavage came to 1.96. Then U100C A121U A138G, with 2.13; and C99A U108C A117U, with 0.69; and U87C G89A U130C, with 0.05. Then U87G G93U U102C A107G C111A, with 0.08; and U85A U91A U130C, with 0.09. Regarding U87C U109C A124U, the self-cleavage turned out to be 0. The value for U100A A129G U143C was 0.19; that for C95U U109C A124G was 0.08.

Turning to A92G A138G A142G, the self-cleavage was 0.07. As to U85C U108C U134C, the self-cleavage amounted to 0.21. Then U85C U132C A136G, with 0.17; and C95A U112C U115C, with 0.04. The value for A79U U87A A117G U119C was 0.07; that for U87C U100C A117U was 0.4; that for U91C U102C C110A was 0.27. Then U100C U112C U119C C123U, with 2.88. For the variant U87G A129G U132C, the self-cleavage was found to be 0. Then U81G U96C U108C A140G, with 0.17; and U96C U132C U143C, with 0.14. Take A92C A117G A140G: the self-cleavage is 0. The value for U96A U119A A124G A142G was 0.03; that for U81A U130C A140G A141U was 1.98. Then U104C U119C A136U, with 1.06; and C99U U109A G127C, with 0.39; and A94G U115G U132C, with 1.31. Then U85G U96C U119C, with 0.38; and G88U A107U U108C, with 0.04; and U91A A121U A138G, with 0.98.

On to G88A C90A A94G A140G, for which the self-cleavage amounted to 0.03. Then U87C U96C U102A, with 0.52; and U81C U87A U115A, with 0.1; and A92G A140G U143C, with 0.14. On to U85C U115A U130A, for which the self-cleavage worked out at 0.2.

On to U102C U130C U134C, for which the self-cleavage was found to be 2.3. Then U85A U96A G97A, with 0.07; and U104A U112A A121U A124U, with 0.82; and U87C A107U U115C, with 0. Then U100C G126A C145U, with 1.63; and U100C C110A U143C, with 2.21. The value for U85C G114A A138U was 0.12; that for U87C U112C U132C was 0.06; that for U85C G88A A92G A141G was 0.08.

Turning to A94G C103A A140U, the self-cleavage came out at 0.16. Then U81A G97A A140U, with 0.21; and A107G A117U U143C, with 1.32. The value for A79U U87C A117U U134C was 0.13; that for A94G C99U U119C was 0.15. Then U87C A94G U143C, with 0; and U85G A92U U132A, with 0.17.

G89A U104C U119C: the self-cleavage is 0.03. Then U87A A121C A124U, with 0.02; and U85A U96C A121G, with 0.

For U81A U108A A138G, the self-cleavage was determined as 1.35. For U81A U91C U130C A140G, the self-cleavage is 1.18. Turning to A79U U85A U96G U115A A136G U143C, the self-cleavage was 0.09. The value for G82A U109A U134G was 1.61; that for U100C A107U A124C A142G was 1.53. Then U85C U104C A117U, with 0.21; and U85C G89U U100C U130C, with 0; and A94G U130A A140G, with 0.19.

Take U87C A94U G137U: the self-cleavage was 0.16. The value for U81C A124U G135A was 1.88. For the variant A92U U102A A138G, the self-cleavage was 2.13.

Consider U91C U100A C113U, for which the self-cleavage was determined as 0.18. The value for G80A U87C A140U was 0.2; that for U104C A124G U134A U143C was 0.44.

As for U81C C90A U132C, the self-cleavage came to 0.02. As for U85C G88A U100C U119A, the self-cleavage came out at 0.02. Then A92G U115C A129U, with 0; and U96C U134A A138G, with 0.07; and U100C U115A U134C A141G, with 1.84.

For U100C G105U A142G, the self-cleavage came out at 1.71. Take U104C G127A A136G: the self-cleavage came to 0.39. Then U85A U100C U104C, with 0.21.

For the variant C98U U104C A140U, the self-cleavage was determined as 0.66. The value for U91C G114C A141U was 0.71; that for U81C A124G G125A A142G was 0.47. With A92G U96A U143C, the self-cleavage came out at 0.2. The value for U81A U87A A129C A140U was 0.04; that for C84U U91A A121C was 0.28; that for U100C U134C C146U was 2.44. The value for G83C U96C G97A U130C U143A was 0.03; that for U85C C98U A124G was 0. Then U91C A92C C128U U130C, with 0.11; and U81G U87A G144A, with 0. On to U104C A107G A124U, for which the self-cleavage was found to be 2.55.

Take U81C U109C A121G A140U: the self-cleavage turned out to be 1.31.

With G86U U104C A107U, the self-cleavage came out at 0.02.

As to U100C A129G A140U, the self-cleavage was determined as 0.57. The value for G105U A117G U143C was 1.87; that for A92G U104C A124U A129G was 0.46; that for G88A U115C G122C was 0.06.

For the variant U96C U100C U102C, the self-cleavage worked out at 0.21.
